Reference: publication PMC4336329 (PLoS ONE, 2015)
Hit rate of the full screen: of about 310,000 compounds, about 14,000 (4.5%) showed an effect of 50% or more. Effects have a minus sign here. Some of the results follow.

target: human ether-à-go-go-related gene (hERG) potassium channel (human, UniProt Q12809); experiment: primary screen, population patch clamp on CHO cells stably expressing hERG
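Further: peak tail current of the secondary pulse compared with the same well before compound.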

Chain of human ether-à-go-go-related gene (hERG) potassium channel (Q12809 whole entry, looked up): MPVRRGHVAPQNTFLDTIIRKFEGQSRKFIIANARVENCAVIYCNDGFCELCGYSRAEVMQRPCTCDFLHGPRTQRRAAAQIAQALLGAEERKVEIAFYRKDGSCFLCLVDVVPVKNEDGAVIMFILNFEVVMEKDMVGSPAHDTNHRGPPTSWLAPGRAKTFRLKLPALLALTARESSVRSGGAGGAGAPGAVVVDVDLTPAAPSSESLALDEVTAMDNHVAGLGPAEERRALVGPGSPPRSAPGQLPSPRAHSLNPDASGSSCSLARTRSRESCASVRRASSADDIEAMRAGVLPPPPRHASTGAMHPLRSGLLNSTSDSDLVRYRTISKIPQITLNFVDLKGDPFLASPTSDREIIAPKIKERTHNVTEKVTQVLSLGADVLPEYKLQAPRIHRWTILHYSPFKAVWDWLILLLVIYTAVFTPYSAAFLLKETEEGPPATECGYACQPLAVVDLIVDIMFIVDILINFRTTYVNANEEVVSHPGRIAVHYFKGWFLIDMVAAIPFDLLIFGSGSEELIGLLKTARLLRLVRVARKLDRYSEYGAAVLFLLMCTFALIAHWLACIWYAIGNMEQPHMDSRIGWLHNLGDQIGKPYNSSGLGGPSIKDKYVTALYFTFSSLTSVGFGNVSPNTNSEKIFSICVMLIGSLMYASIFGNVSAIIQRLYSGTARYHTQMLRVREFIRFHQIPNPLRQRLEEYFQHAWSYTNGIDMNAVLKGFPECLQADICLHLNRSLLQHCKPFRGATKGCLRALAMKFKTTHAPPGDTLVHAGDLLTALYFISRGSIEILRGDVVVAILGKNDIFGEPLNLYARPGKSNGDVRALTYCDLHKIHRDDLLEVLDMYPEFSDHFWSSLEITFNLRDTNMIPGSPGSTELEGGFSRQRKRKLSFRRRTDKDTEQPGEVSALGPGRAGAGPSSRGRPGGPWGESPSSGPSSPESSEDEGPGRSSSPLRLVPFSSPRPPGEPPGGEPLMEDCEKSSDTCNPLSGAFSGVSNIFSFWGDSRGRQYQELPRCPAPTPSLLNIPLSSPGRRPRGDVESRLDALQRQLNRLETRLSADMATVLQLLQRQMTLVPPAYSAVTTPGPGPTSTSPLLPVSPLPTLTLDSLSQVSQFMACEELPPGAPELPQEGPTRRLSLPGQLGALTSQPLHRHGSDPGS

Row | SMILES | hERG current change (%, negative = inhibition) at 10uM
1 | CCOC(=O)C1CCCN(C(=O)c2c(-c3ccccc3Cl)noc2C)C1 (stereo not shown) | 5.46%
2 | Cc1ccc(-n2c(SCC(=O)N3CCCCC3)nc(O)c(Cc3ccccc3)c2=O)cc1 | 22.4%
3 | COCc1nnc(NC(=O)c2cccc(NC(=O)c3ccccc3)c2)s1 | -8.59%
4 | CCNc1c(NS(=O)(=O)c2ccc(Br)s2)c(=O)oc2ccccc12 | -4.26%
5 | O=[N+]([O-])c1ccc2c(c1)C(N1CCOCC1)/C(=C/COc1ccc3ccccc3c1Br)O2 (stereo not shown) | 14.7%
6 | CC(=O)c1c(C)[nH]c(C(=O)CN2C(=O)NC(CCc3ccccc3)C2=O)c1C (stereo not shown) | 5.19%
7 | Cc1ccc(S(=O)(=O)N(CC2CO2)c2cccc([N+](=O)[O-])c2)cc1 (stereo not shown) | 11.9%
8 | COc1ccc(CCNCC(C)c2ccccc2)cc1.O=C(O)C(=O)O (stereo not shown) | -11.1%
9 | c1ccc(-c2noc(-c3cccnc3)n2)nc1 | 7.02%
10 | COCCSc1nnc(NC(=O)c2ccc3c(c2)OCO3)s1 | 6.82%
11 | Cc1ccc(S(=O)(=O)N2CN(CC3CCCO3)c3nc4ccccc4nc32)cc1 (stereo not shown) | -8.98%
12 | CCOC(=O)N/N=C1\CC(C)CC(C)(C)C1 (stereo not shown) | 12.8%
13 | Cc1c[nH]c(=O)c([N+](=O)[O-])c1 | 19.9%
14 | CCOC(=O)c1c(NC(=O)CN2C(=O)NC(C)(c3ccc(Cl)cc3)C2=O)sc(C(=O)NC)c1C (stereo not shown) | -6.23%
15 | Cc1nn(-c2ccccc2)c(Cl)c1/C=N/Nc1nncc(=O)[nH]1 | 6.76%
16 | O=C(NCCCN1CCOCC1)c1ccc2c(c1)N(Cc1ccccc1)CCS2 | -33.5%
17 | Cc1ccc2[nH]c(C(=O)N3CCCCC3)cc2c1 | -1.56%
18 | O=C(O)CC(Cc1ccccc1)(C(=O)O)c1ccccc1 (stereo not shown) | 12.6%
19 | COc1cccc(CNC(=O)Cn2ccc3cc(S(=O)(=O)N4CCCC4)ccc32)c1 | 2.51%
20 | O=C(N/N=C/c1ccco1)c1cccs1 | -1.95%
21 | CCOC(=O)CCCNc1ccc([N+](=O)[O-])cc1[N+](=O)[O-] | -13.3%
22 | Cc1cc(C)c(S(=O)(=O)Nc2nccs2)c(C)c1 | 0.875%
23 | Cc1ccc(C)c(OCC(=O)Nn2c(C)nc3ccccc3c2=O)c1 | 11.4%

Row | SMILES | hERG current change (%, negative = inhibition) at 10uM
24 | Cc1ccnc(NS(=O)(=O)c2ccc(NC(=O)Cc3ccc(Br)cc3)cc2)n1 | 23.4%
25 | CCCCn1c(=O)[nH]c(=O)c2c1nc(-c1ccc(C(F)(F)F)cc1)n2C | 3.8%
26 | Cc1cccc(C(=O)NNC(=O)c2ccccc2[N+](=O)[O-])c1 | -1.59%
27 | CNC(=S)N1CCn2cccc2C1c1cc(OC)c(OC)c(OC)c1 (stereo not shown) | 15.3%
28 | CCCOc1ccc(-c2nc(N3CCN(CC)CC3)c3ccccc3n2)cc1 | -17.3%
29 | CCCC(=O)N(CCN1CCOCC1)c1nc2c(OC)ccc(C)c2s1.Cl | -37.7%
30 | Cc1ccnn2cc3c(=O)n(C)c(=O)n(C)c3c12 | 16.8%
31 | Cc1cc(C)cc(NC(=O)CCNC(=O)c2ccc([N+](=O)[O-])cc2)c1 | -29.4%
32 | CCOc1ccc2nc(N3CCCC(C(=O)NCCCN4CCCCC4)C3)sc2c1 (stereo not shown) | -64.8%
33 | CC(=O)OCc1cc(=O)n(C)c(=O)n1C | 9.67%
34 | O=C(CCCN1C(=O)c2ccccc2C1=O)NCC1CCCO1 (stereo not shown) | 12.2%
35 | CCOC(=O)[C@@H]1[C@H]2COc3ccc(Br)cc3[C@@H]2N2C(=O)N(c3ccccc3)C(=O)[C@]12C | -3.09%
36 | COc1ccc(C(CCN2CCCC2)c2c(O)cc(OC)cc2OC)cc1 (stereo not shown) | -61.2%
37 | O=C(COc1cccc(-n2cnnn2)c1)NC1CCCCC1 | -0.742%
38 | COc1ccc(CCn2c(-n3nc(C)cc3C)nc3c2c(=O)[nH]c(=O)n3C)cc1 | 3.66%
39 | Cc1cccc2sc(NC(=O)c3cc(S(=O)(=O)N(C)C)ccc3N3CCCC3)nc12 | 12%
40 | Nc1ccccc1Oc1ncc(C(F)(F)F)cc1Cl | 13.9%
41 | O=C(COC(=O)CC1c2ccccc2CCN1S(=O)(=O)c1ccccc1)Nc1ccccc1 (stereo not shown) | -10.2%
42 | COc1cc(NC(=O)C(Cc2ccccc2)n2cccc2)cc(OC)c1 (stereo not shown) | -17.4%
43 | O=C(NC1CC2CCCC(C1)N2C(=S)NCCc1ccccc1)C1CC1 (stereo not shown) | 5.33%
44 | COc1ccc(CN2C(=O)COc3ccccc32)cc1 | 12%
45 | Cc1ccc(NC(=O)CCCc2nc3ccccc3c(=O)[nH]2)c(Cl)c1 | 5.16%
46 | Cc1cc(OCCCC(=O)NNC(=O)c2ccncc2)ccc1Cl | -13.4%

Row | SMILES | hERG current change (%, negative = inhibition) at 10uM
47 | Cn1c(=O)[nH]c(=O)c2c1nc(SCC(=O)O)n2CCCc1ccccc1 | 3.89%
48 | COc1ccc(NC(=O)CN(C)C(=O)/C=C/c2ccc(S(=O)(=O)N3CCCCCC3)cc2)cc1 | 7.14%
49 | O=C(N1CCCC1)C12CCC3CC(CC(C3)C1)C2 | -10.9%
50 | O=C(Nc1ccc(-c2nc3ccccc3[nH]2)cc1)c1ccco1 | -18.4%
51 | CC1CCc2c(C(=O)NCCCN3CCOCC3)csc2C1 (stereo not shown) | -8.95%
52 | CC1CC(C)CN(CC(O)COC2CC(C)CC(C)(C)C2)C1.Cl (stereo not shown) | -32.3%
53 | CC(/C=C/c1ccco1)=N/NC(=O)C1COc2ccccc2O1 (stereo not shown) | -1.45%
54 | O=C(CSc1nc2ccccc2n1CC(=O)N1CCOCC1)N1CCCC1 | 14.7%
55 | CN(CC(=O)Nc1ccc(F)cc1)C(=O)COC(=O)c1cccc(N(C)C)c1 | -3.9%
56 | Cc1cnc(NC(=O)COc2ccccc2Cl)s1 | 1.15%
57 | N#CCC(=O)Nc1ccc(C(=O)NNC(=O)CCN2CCN(c3ccccc3)CC2)cc1 | -5.56%
58 | CCOc1ccc(S(=O)(=O)N2CCCCC2)cc1NC(=O)CN1C(=O)NC(C)(c2ccc(C)cc2)C1=O (stereo not shown) | -10.4%
59 | CCCN(CCC(=O)Nc1ccccc1F)CC1CC1 | -0.259%
60 | COCCn1c(=S)[nH]c2cc(C(=O)NCC3CCCO3)ccc2c1=O (stereo not shown) | -8.8%
61 | CCCCn1c(N)c(N(CCOC)C(=O)COC(=O)c2cc(CC)c(C)s2)c(=O)[nH]c1=O | 22%
62 | CCOC(=O)c1ccccc1NC(=O)CSc1ccccc1 | -14.7%
63 | Cc1ccccc1N1C(=O)C2CCCN2C1=S (stereo not shown) | 12.6%
64 | COc1cccc(C(=O)Nc2cccc(-c3ccccc3)c2)c1 | 12.8%
65 | Cc1cccc(C(=O)NCc2nnc(SCC(=O)Nc3nnc(C)s3)n2C)c1 | 1.37%
66 | OCC1(CCCc2ccccc2)CCN(Cc2ccc(F)cc2)CC1 | -72.9%
67 | Cc1ccc(C2NC(=O)c3c(sc4c3CCN(C)C4)N2)o1 (stereo not shown) | -23.4%
68 | C[n+]1ccccc1N1CCN(c2ccccc2Cl)CC1.[I-] | -7.69%
69 | O=C(OCC(=O)N1CCCC1)c1cncc(Br)c1 | 22.6%

Row | SMILES | hERG current change (%, negative = inhibition) at 10uM
70 | O=C(COC(=O)c1cncc(Br)c1)NCc1ccc2c(c1)OCO2 | 4.54%
71 | Cc1ccc(NC(=O)c2ccc(-c3nn(C)c(=O)c4ccccc34)cc2)c(C)c1 | -42.4%
72 | CCC(Oc1ccc(C)cc1)C(=O)Nc1ccc(S(=O)(=O)Nc2nccs2)cc1 (stereo not shown) | 3.46%
73 | O=C(O)CNC(=O)CCn1nnc2ccccc2c1=O | 6.5%
74 | CCCCN(CC)Cc1ccc(CNC(=O)Nc2ccc(OCC)cc2)o1 | -15.1%
75 | CC(=O)Nc1ccc(C2=NN(c3ccccc3)C(c3cccs3)C2)cc1 (stereo not shown) | 7.7%
76 | CCCN1CCC(NC23CC4CC(CC(C4)C2)C3)CC1 | 22.1%
77 | O=C(NCc1ccccn1)c1cc(-c2ccc(Cl)cc2)nc2ccccc12 | -30.9%
78 | COC(=O)Nc1ccc(S(=O)(=O)NCc2ccccn2)cc1 | 4.31%
79 | N#Cc1c(NC(=O)C2CC(c3ccccc3O)=NO2)sc2c1CCC2 (stereo not shown) | 5.45%
80 | COc1ccc(S(=O)(=O)NCC2CCCN(Cc3ccccc3Cl)C2)cc1 (stereo not shown) | -37.9%
81 | O=C(NCC1CC1)NC(=O)c1c(F)cccc1Cl | 13.4%
82 | Nn1c(SCC(=O)Nc2ccc(F)cc2)nnc1-c1ccccn1 | -53.6%
83 | Cc1cc(=O)c2cc(Br)ccc2[nH]1 | 8.12%
84 | Cn1c(NC(=O)CC2CCCCC2)cc(=O)n(C)c1=O | -15.4%
85 | CCOc1ccc(NC(=O)C(C)Sc2nnc(C)n2C)cc1 (stereo not shown) | -7.86%
86 | CC(=O)CCc1c(C)[nH]c2ccc(NC(C)=O)cc2c1=O | 11.9%
87 | COc1ccc(Cc2nc3ccc(C(=O)NCCSC)cc3o2)cc1 | 6.36%
88 | O=C(Nc1ccc(C(=O)N2CCN(c3ccccc3)CC2)cc1)C1=CSCCO1 | -39.8%
89 | Cc1cccc(NC(=O)C2CCN(C(=O)[C@@H]3Cc4ccccc4CN3)CC2)c1 | -67.2%
90 | Cc1ccc(CN(C(=O)c2csnn2)C(C(=O)NC2CCCC2)c2ccc(C)o2)cc1 (stereo not shown) | 1.37%
91 | C[N+](C)(CCOc1ccccc1)Cc1ccccc1.O=C(O)c1cc2ccccc2c(Br)c1[O-] | 3.81%
